# Results taken from the supplement of paper PMC10037445.
# The full ranking holds about 2,900 compounds; the median of “IRF Lucia reporter activity, fold change vs agonist alone” is about 0.9, and the highest 2% start at about 2.8. The list shows a part of the results.
# Tests used:
# RAW-Dual [1] = experiment: IRF Lucia reporter activity, fold change vs agonist alone; higher = enhanced IRF activity; settings: cytotoxicity flag (confluency mask): not cytotoxic, agonist: MPLA (TLR4) […]
# Summary of the method: (§1)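 RAW-Dual macrophages were seeded in DMEM at 50,000 cells/well in 384-well plates, given 50 nL of library stock by pin tool, and given a PRR agonist 1 h later. Plates were held at 37 °C, 5% CO2 for 20 hours, after which supernatant was read for IRF by QuantiLuc luminescence and for NF-κB by QuantiBlue absorbance at 620 nm. Reporter activity is expressed as fold change over wells that received agonist alone. A well was called cytotoxic when IncuCyte confluency fell below 70% of agonist controls in both mask sets.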
# RAW-Dual [2] = experiment: IRF Lucia reporter activity, fold change vs agonist alone; cytotoxicity flag (confluency mask): not cytotoxic; higher = enhanced IRF activity
# Summary of the method: as §1
# RAW-Dual [3] = experiment: IRF Lucia reporter activity, fold change vs agonist alone; cytotoxicity flag (confluency mask): cytotoxic (confluency <70% of control); higher = enhanced IRF activity
# Summary of the method: as §1
# [4] = library stock concentration (final ~1000-fold dilution): 10 mM
# [5] = agonist: 3'3'-cGAMP (STING) 10 ug/mL
smiles,measurement,setting,value
O=C(O)c1cc2ccccc2[nH]1,IRF Lucia reporter activity,RAW-Dual [1]; [4],1.1
O=C(O)c1cc2ccccc2[nH]1 (library stock concentration (final ~1000-fold dilution): 10 mM),IRF Lucia reporter activity,RAW-Dual [2]; [5],1.01
same,IRF Lucia reporter activity,RAW-Dual [2]; agonist: LPS (TLR4) 0.1 ug/mL,0.986
CC1(c2cc(-c3cncnc3)c(F)cc2F)CCSC(N)=N1 (centres undefined) (library stock concentration (final ~1000-fold dilution): 10 mM),IRF Lucia reporter activity,RAW-Dual [2]; [5],0.823
same,IRF Lucia reporter activity,RAW-Dual [2]; agonist: LPS (TLR4) 0.1 ug/mL,0.805
CC1(c2cc(-c3cncnc3)c(F)cc2F)CCSC(N)=N1 (centres undefined),IRF Lucia reporter activity,RAW-Dual [1]; [4],0.717
Cc1cc(Cn2cnc3c2CC(C(=O)O)N(C(=O)C(c2ccccc2)c2ccccc2)C3)ccc1N(C)C (centres undefined),IRF Lucia reporter activity,RAW-Dual [1]; [4],1.03
Cc1cc(Cn2cnc3c2CC(C(=O)O)N(C(=O)C(c2ccccc2)c2ccccc2)C3)ccc1N(C)C (centres undefined) (library stock concentration (final ~1000-fold dilution): 10 mM),IRF Lucia reporter activity,RAW-Dual [2]; [5],1.03
same,IRF Lucia reporter activity,RAW-Dual [2]; agonist: LPS (TLR4) 0.1 ug/mL,1.02
Cc1ccc(S(=O)(=O)NC(=O)NN2CC3CCCC3C2)cc1 (centres undefined),IRF Lucia reporter activity,RAW-Dual [1]; [4],1.04
Cc1ccc(S(=O)(=O)NC(=O)NN2CC3CCCC3C2)cc1 (centres undefined) (library stock concentration (final ~1000-fold dilution): 10 mM),IRF Lucia reporter activity,RAW-Dual [2]; [5],1.01
same,IRF Lucia reporter activity,RAW-Dual [2]; agonist: LPS (TLR4) 0.1 ug/mL,0.988
CN1CCCC1CCOC(C)(c1ccccc1)c1ccc(Cl)cc1.O=C(O)/C=C/C(=O)O (centres undefined),IRF Lucia reporter activity,RAW-Dual [1]; [4],1.15
CN1CCCC1CCOC(C)(c1ccccc1)c1ccc(Cl)cc1.O=C(O)/C=C/C(=O)O (centres undefined) (library stock concentration (final ~1000-fold dilution): 10 mM),IRF Lucia reporter activity,RAW-Dual [2]; [5],0.641
same,IRF Lucia reporter activity,RAW-Dual [2]; agonist: LPS (TLR4) 0.1 ug/mL,1.33
Cc1noc(C)c1-c1ccc2[nH]c(=O)n3c2c1OCC3c1ccccn1 (centres undefined) (library stock concentration (final ~1000-fold dilution): 10 mM),IRF Lucia reporter activity,RAW-Dual [2]; [5],0.335
same,IRF Lucia reporter activity,RAW-Dual [2]; agonist: LPS (TLR4) 0.1 ug/mL,0.167
Cl.O=C1C2CCCCC2C(=O)N1CCCCN1CCN(c2nsc3ccccc23)CC1 (centres undefined),IRF Lucia reporter activity,RAW-Dual [1]; [4],0.801
Cl.O=C1C2CCCCC2C(=O)N1CCCCN1CCN(c2nsc3ccccc23)CC1 (centres undefined) (library stock concentration (final ~1000-fold dilution): 10 mM),IRF Lucia reporter activity,RAW-Dual [2]; [5],0.434
same,IRF Lucia reporter activity,RAW-Dual [2]; agonist: LPS (TLR4) 0.1 ug/mL,0.881
O=C(OC1CC2CC3CC(C1)N2CC3=O)c1c[nH]c2ccccc12 (centres undefined),IRF Lucia reporter activity,RAW-Dual [1]; [4],1.03
O=C(OC1CC2CC3CC(C1)N2CC3=O)c1c[nH]c2ccccc12 (centres undefined) (library stock concentration (final ~1000-fold dilution): 10 mM),IRF Lucia reporter activity,RAW-Dual [2]; [5],0.956
same,IRF Lucia reporter activity,RAW-Dual [2]; agonist: LPS (TLR4) 0.1 ug/mL,1.31
Cc1nnc(C(C)C)n1C1CC2CCC(C1)N2CCC(NC(=O)C1CCC(F)(F)CC1)c1ccccc1 (centres undefined),IRF Lucia reporter activity,RAW-Dual [1]; [4],0.942
Cc1nnc(C(C)C)n1C1CC2CCC(C1)N2CCC(NC(=O)C1CCC(F)(F)CC1)c1ccccc1 (centres undefined) (library stock concentration (final ~1000-fold dilution): 10 mM),IRF Lucia reporter activity,RAW-Dual [2]; [5],1.04
same,IRF Lucia reporter activity,RAW-Dual [2]; agonist: LPS (TLR4) 0.1 ug/mL,0.853
CC(C)C(NC(=O)c1ccc2ccccc2n1)C(=O)NC(CC(=O)O)C(=O)COc1c(F)cccc1F (centres undefined),IRF Lucia reporter activity,RAW-Dual [1]; [4],1.24
CC(C)C(NC(=O)c1ccc2ccccc2n1)C(=O)NC(CC(=O)O)C(=O)COc1c(F)cccc1F (centres undefined) (library stock concentration (final ~1000-fold dilution): 10 mM),IRF Lucia reporter activity,RAW-Dual [2]; [5],1.64
same,IRF Lucia reporter activity,RAW-Dual [2]; agonist: LPS (TLR4) 0.1 ug/mL,1.3
CC(C)CC(NC(=O)C1OC1C(=O)O)C(=O)NCCCCNC(=N)N (centres undefined) (library stock concentration (final ~1000-fold dilution): 10 mM),IRF Lucia reporter activity,RAW-Dual [2]; [5],1.16
same,IRF Lucia reporter activity,RAW-Dual [2]; agonist: LPS (TLR4) 0.1 ug/mL,0.804
CC(C)CC(NC(=O)C1OC1C(=O)O)C(=O)NCCCCNC(=N)N (centres undefined),IRF Lucia reporter activity,RAW-Dual [1]; [4],1.16
CC(=O)Oc1cccc2c1C(=O)c1c(OC(C)=O)cc(C(=O)O)cc1C2=O (library stock concentration (final ~1000-fold dilution): 10 mM),IRF Lucia reporter activity,RAW-Dual [2]; [5],1.03
same,IRF Lucia reporter activity,RAW-Dual [2]; agonist: LPS (TLR4) 0.1 ug/mL,1.36
CC(=O)Oc1cccc2c1C(=O)c1c(OC(C)=O)cc(C(=O)O)cc1C2=O,IRF Lucia reporter activity,RAW-Dual [1]; [4],1.08
O=c1c2ccccc2nc(/C=C/c2cccnc2)n1Cc1ccccc1 (library stock concentration (final ~1000-fold dilution): 10 mM),IRF Lucia reporter activity,RAW-Dual [2]; [5],0.381
same,IRF Lucia reporter activity,RAW-Dual [2]; agonist: LPS (TLR4) 0.1 ug/mL,0.422
CC(C)(C#N)c1ccc(N2C(=O)OCc3cnc4ccc(-c5cnc6ccccc6c5)cc4c32)cc1 (library stock concentration (final ~1000-fold dilution): 10 mM),IRF Lucia reporter activity,RAW-Dual [2]; [5],0.582
same,IRF Lucia reporter activity,RAW-Dual [2]; agonist: LPS (TLR4) 0.1 ug/mL,0.437
COc1ccc(N2C(=O)/C(=C/c3ccc([N+](=O)[O-])s3)SC2=S)cc1 (library stock concentration (final ~1000-fold dilution): 10 mM),IRF Lucia reporter activity,RAW-Dual [3]; [5],0.0625
same,IRF Lucia reporter activity,RAW-Dual [3]; agonist: LPS (TLR4) 0.1 ug/mL,0.0609
CN(C)c1ccc(-c2nc3c(N4CCN(CC(=O)Nc5nccs5)CC4)c(Cl)cnc3[nH]2)cc1,IRF Lucia reporter activity,RAW-Dual [1]; library stock concentration (final ~1000-fold dilution): 2 mM,0.949
CN(C)c1ccc(-c2nc3c(N4CCN(CC(=O)Nc5nccs5)CC4)c(Cl)cnc3[nH]2)cc1 (library stock concentration (final ~1000-fold dilution): 2 mM),IRF Lucia reporter activity,RAW-Dual [2]; [5],0.0544
same,IRF Lucia reporter activity,RAW-Dual [2]; agonist: LPS (TLR4) 0.1 ug/mL,0.209
